Article PMC12136788
The other results are listed elsewhere or left out.

T1: UNK ZnF1-6 (called full-length) (human, UniProt Q9C0B0 30-357)
T1 sequence: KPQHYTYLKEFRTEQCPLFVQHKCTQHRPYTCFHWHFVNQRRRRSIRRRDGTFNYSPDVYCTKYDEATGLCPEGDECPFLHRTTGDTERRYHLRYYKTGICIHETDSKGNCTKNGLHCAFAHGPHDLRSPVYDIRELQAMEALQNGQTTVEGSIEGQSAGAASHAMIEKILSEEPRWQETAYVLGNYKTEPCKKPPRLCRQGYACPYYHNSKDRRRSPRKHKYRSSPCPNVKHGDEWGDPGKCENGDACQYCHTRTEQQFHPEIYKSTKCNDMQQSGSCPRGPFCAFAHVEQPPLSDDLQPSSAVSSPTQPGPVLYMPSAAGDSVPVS

B1: chr15:93027272:93027374:+|3pUTR|ENSG00000173575|unk|total|mutant (ssRNA)
RNA: GGGAGUUCUACAGUCCGACGAUCCCAGGAAUCUGUGAGGAUGGUAUUCCCUGGAGUCUGGCUUUGAAAGAUUUCAUUGUUGGCCGAAAUAACAGGUUGAGAAAGAGGGAGUCCGCAUCACCUAAAACCUGCACGUGAACAAGGCAACAGAGGAUUGAGCAUCA
B2: ENSG00000013374:stop:overlap|stop_codon|ENSG00000013374|stop_codon|NA|stop_codon (ssRNA)
RNA: GGGAGUUCUACAGUCCGACGAUCAAAGAAAAGAAUAUGGAAUAGCCUUGCCAUGUCUGUUGGACGCUGACAAAUAUUUCUGGUAGGCGCUUUUGUACUUGGUGAACACCAGCUUUAAGGAAGAUGGCCCAGACUAUACAGAACCAACAGAGGAUUGAGCAUCA
B3: chr15:52550718:52550819:-|3pUTR|ENSG00000128989|msi1|FALSE|unique (ssRNA)
RNA: GGGAGUUCUACAGUCCGACGAUCUUUAUAUAAACUUUUUAAAUGUAGAAACUUUUUACUUCCACACUCAGUUUUGGAGACCCUAGAAUAAAAGGCUUCAAUACUCUGCAUUCCAUGCCCUCUGCCACCUGCUUUUUUUUCCCCCAACAGAGGAUUGAGCAUCA
B4: chr17:58090057:58090109:+|3pUTR|ENSG00000264364|msi1_unk|total|mutant (ssRNA)
RNA: GGGAGUUCUACAGUCCGACGAUCGGGCCGGAUCCGCUUGAAUCUUUUUUUUCUUUACAUUUUUCUCCUGUCUGCUCCCUGCUCCGCCCUCAGUUUCCUCAUUCCUCUGGAGUUCUCUCCGAGCAGCCCCUGUUGUCCGUUGGCCAACAGAGGAUUGAGCAUCA
B5: chr15:93024873:93024975:+|3pUTR|ENSG00000173575|unk|total|mutant (ssRNA)
RNA: GGGAGUUCUACAGUCCGACGAUCGGUCCAGCUCUGAUUCGGGUCACCACUCCUGCACUUUGGCACCCCAUCCCAUUCCAGCCCCGUUCUGGCCUCCCACUUUGACGGGCACUUGGAGGAGGAGCUGACUGUGUGUGUACCAGCCAACAGAGGAUUGAGCAUCA
B6: chr9:128390415:128390516:+|3pUTR|ENSG00000167118|msi1|total|mutant (ssRNA)
RNA: GGGAGUUCUACAGUCCGACGAUCCUUACAGCUCAUUCUGCUGGGGGCCGAGAUGAGGGGAGGGAGUAAGUUAAACCUUGGACCCGCAAGCCGAAGCCUGGGGGGAUGCGUGUGCCUCAGUUUCCUCCUCCACAACUGAAUAUACAACAGAGGAUUGAGCAUCA
B7: chr4:15962460:15963129:-|CDS|ENSG00000137441|control|control|control (ssRNA)
RNA: GGGAGUUCUACAGUCCGACGAUCAAUCAAGCCCUGCAGGAGCUGAGGCGCCUUCACCAUGCGUGCCAGGGGGCCCCGGUGCUUAGGCCAUCCGUGUGCAGGGAGGCUGGACCCCAGGCCCAUAUGCAGCAGGUGACUUCCAGCCAACAGAGGAUUGAGCAUCA
B8: chr16:2586768:2586869:+|CDS|ENSG00000140992|unk|FALSE|bound_elsewhere (ssRNA)
RNA: GGGAGUUCUACAGUCCGACGAUCCUCCUCACACUCCCUGUCAGCCUCCGACACGGGCCUGCCCCAGAGGUCAGGCAGCAACAUAGAGCAGUACAUUCACGAUCUGGACUCGAACUCCUUUGAACUGGACUUACAGUUUUCCGACAACAGAGGAUUGAGCAUCA
B9: chr14:51255895:51255996:+|3pUTR|ENSG00000139921|msi1_unk|total|mutant (ssRNA)
RNA: GGGAGUUCUACAGUCCGACGAUCGUGAAUCCAUCCGAUUUACAGUAUCGUAAUAUACAAGUUUUCUUUAAAGCCCUCUCCUUCCGAAUUUAAAAUAUUGUACCAUUGAAGAGUUUGGAUGUGUAACUUGUGAUGCCUCCGAAACAACAGAGGAUUGAGCAUCA
B10: chr18:67512643:67512744:-|CDS|ENSG00000171451|unk|FALSE|bound_elsewhere (ssRNA)
RNA: GGGAGUUCUACAGUCCGACGAUCGCCAUGAUGGAUGUGUGGGAUGCACAUUACAAAAUGUUUUGGUUUGAUCAUCAUGGCAAUAGUCCCAUGGCCAGUAUACAGGAAGCAGAGCAAGCUGCUGAAUUUAAAAAACGAUGGACUCAACAGAGGAUUGAGCAUCA
B11: chr1:231019617:231019718:-|3pUTR|ENSG00000182118|msi1|total|mutant (ssRNA)
RNA: GGGAGUUCUACAGUCCGACGAUCGCAGGGAGUUCUCCGCGGAUGCAUGGUGGCAGUCUGCUUUGAUGGCAGCAGUUUCUGCUCCGGUGACCCCGAGGUCCUCAGCAGUAUCCUCCACACCUAUUUAUUGAGGUGCACCUGCUGCAACAGAGGAUUGAGCAUCA
B12: chr16:57471571:57471634:+|3pUTR|ENSG00000102978|msi1_unk|FALSE|overlapping (ssRNA)
RNA: GGGAGUUCUACAGUCCGACGAUCAUAGCCUUUAUUCAGGGGGCCUAUAAACCCUUCCAGUUCUUGCCCCAGGGCUGGCCUGCUAGCGCUUCAAAUUCCCAGGUGUCCCUAAUUUGAGAAGUAACCUUUUGGAAUAGCAUUAGACAACAGAGGAUUGAGCAUCA
B13: chr11:11963431:11963477:-|3pUTR|ENSG00000050165|msi1_unk|FALSE|overlapping (ssRNA)
RNA: GGGAGUUCUACAGUCCGACGAUCUUGACACUGUCCCUCUUUGGCAGUUGCAUUAGUAACUUUGAAAGGUAUAUGACUGAGCGUAGCAUACAGGUUAACCUGCAGAAACAGUACUUAGGUAAUUGUAGGGCGAGGAUUAUAAAUCAACAGAGGAUUGAGCAUCA
B14: chr19:5558166:5561399:-|three_prime_utr|ENSG00000223573|control|control|control (ssRNA)
RNA: GGGAGUUCUACAGUCCGACGAUCCCAGCUGAUGCACACUGCUUCAGACACUCCUGCUGGAGCCCCAGUCCCUGACAAGGACCUAGGACAUUUUUGCUCCUGCCCAGCCUAUCGGGAGGGAGCCUUGAGCCUUUCAGCUCUGCUCAACAGAGGAUUGAGCAUCA
B15: chr16:70398910:70399011:-|5pUTR|ENSG00000157350|unk|total|mutant (ssRNA)
RNA: GGGAGUUCUACAGUCCGACGAUCCACUUGCAUGGAACCCAAGUCCCCUGAAGCCCCUGUGCUCUCUGUUGUGAUUGGAGUUCCCGGGCUUCCCCGCUGCCGGGAACGAGGGGCCGCCUCAUUGUCUGCUCAUGAACCACAAGGCAACAGAGGAUUGAGCAUCA
B16: chr10:101781316:101781432:-|3pUTR|ENSG00000107833|unk|FALSE|unique (ssRNA)
RNA: GGGAGUUCUACAGUCCGACGAUCCCCACCUGCCUGUGAGAAUUGGAGGUUAGUGCCUGAAGCUCAGAGCUACACAUUUUUAAUAGUUUUUACAUUUUUGGAUAAAGGUUGAAAUAAAGUGGUGUGGAGUUUUUGCAGCUCUUGCAACAGAGGAUUGAGCAUCA
B17: chr11:63758435:63758536:+|3pUTR|ENSG00000133318|msi1|FALSE|unique (ssRNA)
RNA: GGGAGUUCUACAGUCCGACGAUCAGAAAGAAUCAAAUUCAUAGGAUAAGUCAAUACCUUAAUGGUGGUAGAGCCUUUACCUGUAGCUUGAAAGGGGAAAGAUUGGAGGUAAGAGAGAAAAUGAAAGAACACCUCUGGGUCCUUCAACAGAGGAUUGAGCAUCA
B18: chr16:3727180:3727281:-|3pUTR|ENSG00000005339|msi1|total|mutant (ssRNA)
RNA: GGGAGUUCUACAGUCCGACGAUCAAUGCAAGCUUAUAAUGUAUCCCGAUAACUUUGUGAUGUUUCGGGAAGAUUUUUUUCUACCGUGAACUCUGUGGGCGUCUCCCAGUAUUACCCUGGAUGACCGGAAUUGACUCCGGCGUGCAACAGAGGAUUGAGCAUCA
B19: chr3:196828865:196828966:+|3pUTR|ENSG00000180370|msi1|FALSE|bound_elsewhere (ssRNA)
RNA: GGGAGUUCUACAGUCCGACGAUCUGCUCCUUUUGAGUUGCUUUUGCGUUUCUCAUGCCUAGGCAAGUGUAAUAGAAAUUAUGUAGCUCCUUAUGUUGGCAAAGGAGCUCUAUAUAGUUUCACUUUGUAUAAAAGUUAGGACCACAACAGAGGAUUGAGCAUCA
B20: chr7:108149816:108149915:-|CDS_3pUTR|ENSG00000091129|msi1_unk|FALSE|overlapping (ssRNA)
RNA: GGGAGUUCUACAGUCCGACGAUCGUCAACGCCAUGAAUUCCUUUGUUUAAUUUUUAAGCUCUUUGCCAAUAUUCCAUUUCUCUAGAAUGUUUAUCCUAAGCACUUGUUUGUCAGCCCUCUCAUACUAUGAACAUAUGGGUAGACAACAGAGGAUUGAGCAUCA
B21: chr14:75134619:75134720:-|3pUTR|ENSG00000170348|msi1|FALSE|unique (ssRNA)
RNA: GGGAGUUCUACAGUCCGACGAUCAACAAGUCAAUGAGGGACUUCUUUUUAAUUUGGUAGGAUUUUGACUGGUUUUGCAACAAUAGGUCUAUUAUUAGAGUCACCUAUGACAAAAAAUAGGGGUUACCUAGAUAAUGCCAAAGUCAACAGAGGAUUGAGCAUCA
B22: chr3:97755980:97756081:+|3pUTR|ENSG00000080224|unk|FALSE|unique (ssRNA)
RNA: GGGAGUUCUACAGUCCGACGAUCUAAUUAAAAAUCUCUUUCCUACCUUUAGUAAUUUGUAGGAUGAACUGUAUGCAUUUAGAUAGAAAUUGCUUUUGUUAAAUUUACAUUUAAACACAUCUUCAUUCACUUAGAGAAGCCAUACAACAGAGGAUUGAGCAUCA

molecular target: T1, UNK ZnF1-6 (called full-length); test: nsRBNS (natural sequence RNA bind-n-seq); RBNS binding buffer (assumed for nsRBNS): 25 mM Tris pH 7.5, 150 mM KCl, 3 mM MgCl2, 0.01% Triton X-100, 500 ug/ml BSA, 20 U/ml SUPERase-In, 4 C; UNK is unkempt and MSI1 is Musashi-1; names of the RNAs are library labels; protein concentration not given here; high values mean tight binding

Q: How did the binding signal turn out when B1 was run?
A: 0.486 enrichment R

Q: For B2, which binding signal is on record?
A: 2.66 enrichment R

Q: For B3, which binding signal is on record?
A: 3.77 enrichment R

Q: Which binding signal does the source give for B4 here?
A: 1.37 enrichment R

Q: Which binding signal does the source give for B5 here?
A: 4.11 enrichment R

Q: For B6, which binding signal is on record?
A: 1.04 enrichment R

Q: Which binding signal does the source give for B7 here?
A: 0.848 enrichment R

Q: With B8 as the binder, how does the binding signal read?
A: 1.14 enrichment R

Q: For B9, which binding signal is on record?
A: 0.408 enrichment R

Q: B10 was tested. Which binding signal did it give?
A: 0.616 enrichment R

Q: With B11 as the binder, how does the binding signal read?
A: 0.754 enrichment R

Q: How did the binding signal turn out when B12 was run?
A: 1.94 enrichment R

Q: With B13 as the binder, how does the binding signal read?
A: 0.884 enrichment R

Q: B14 was tested. Which binding signal did it give?
A: 0.786 enrichment R

Q: For B15, which binding signal is on record?
A: 0.651 enrichment R

Q: For B16, which binding signal is on record?
A: 2.25 enrichment R

Q: How did the binding signal turn out when B17 was run?
A: 0.876 enrichment R

Q: With B18 as the binder, how does the binding signal read?
A: 0.479 enrichment R

Q: For B19, which binding signal is on record?
A: 0.86 enrichment R

Q: With B20 as the binder, how does the binding signal read?
A: 2.62 enrichment R

Q: With B21 as the binder, how does the binding signal read?
A: 1.95 enrichment R

Q: How did the binding signal turn out when B22 was run?
A: 10.1 enrichment R
